The test system of this experiment is PC-3 prostate. The experiment can be described thus: NCI-60 one-dose screen, 48 h (100 = growth as untreated, 0 = no growth, -100 = all killed).

Where a structure was tested more than once in an assay, its records may differ in their call.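 How to read the values: 0–100, growth inhibition (40 = 60% inhibited); 0, no net growth; -100 to 0, cell death (-40 = 40% of starting cells died; -100 = all dead).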 A number of entries come with more than one value. The list is limited to them. The calls were made as follows: active = growth percent below 10; inactive = the rest. An entry can have further records. These are repeated runs of one drug, at the concentration stated with the values; one value stands for one run. Brackets with × say how often a value occurs here.

Take `COc1cccc2c1C(=O)c1c(O)c3c(c(O)c1C2=O)C[C@@](O)(C(=O)CO)C[C@@H]3OC1CC(N)C(O)C(C)O1` (stereo not given in full): the growth result is, setting by setting: (0.25 µM, runs of 2016) “inactive: 70.1, 65.9 (2×), 69.9, 71.2 (2×), 64.9, 60 (2×), 64.2 (2×), 61.7 (2×), 68.4, 66.6 (2×), 55.6, 64.5 (3×), 62.5, 50.1, 55.1, 59.8, 63.6, 56.3, 65.3 (2×), 58.5, 61.9, 61, 63.4, 61.5 (2×), 62.6, 62.1, 62, 61.8 (2×), 58.2, 67.8, 63.7, 69.5 (2×), 71.9, 72.2, 78.7, 65.1 (2×), 66.3 (2×), 52.9, 56.7, 65.2, 60.6, 64.4, 63.2, 69.2, 65.5, 67.9, 69.1, 65, 69.8 (2×), 67.7, 79.6, 79.4, 75.4, 59.2, 69.7, 70.7, 70.5 (2×), 71.5, 70.2, 70.9, 73.3, 73.2% (2×)”; (0.25 µM, runs of 2017) “inactive: 77.6, 74, 72.2, 70.1, 74.6, 70, 62.1 (3×), 63.6, 55.6, 58 (2×), 64.8 (2×), 60.6 (2×), 63.8, 59.8 (2×), 65.1 (2×), 62.5 (2×), 63.5, 58.4, 63.2 (2×), 60.8, 61.8, 64.4, 62.4 (2×), 68.2, 63.4, 62.6, 63.7, 65.3, 64, 61.9 (2×), 59.7 (2×), 62.3 (3×), 65.5, 65.4, 68.6, 72.1, 59.5, 59, 52.7, 58.2, 56, 62, 51, 57.6, 63.3, 57, 57.9, 61.7, 60, 70.4, 66.3, 69.4, 58.9, 55.8, 77.2, 75.7, 57.7, 60.7, 55%”; (0.25 µM, runs of 2018) “inactive: 64.7 (2×), 63.7 (2×), 58.5, 64.6, 58.1, 58.2, 60.1, 59.7, 63.3, 56.9, 64.4, 65.1 (2×), 66.6, 62.1 (4×), 61.2, 62, 66.4, 64, 58.9, 61.6, 62.3, 60 (2×), 58.4, 61.5 (2×), 60.3, 59.6, 53.6, 55.4, 68.2, 71.5, 59.5, 64.5, 63.8, 65.9, 62.6, 56.7, 40.5, 49.7%”; (0.25 µM, runs of 2019) “inactive: 51.3, 46.8, 51.1 (2×), 43.5, 49.5, 52.9, 49.9, 56.6, 58.2, 52.8 (2×), 54.7, 51.8 (2×), 56.5, 55.3 (2×), 58.4 (2×), 52.4, 58, 57.8, 59.4, 61.3, 61.2 (2×), 55.4, 66.3, 63.1, 60.9, 60.8, 56.8, 54.6 (2×), 54.8, 55.2, 53.8, 55.7, 53.2, 56.2, 57, 57.4 (2×), 52.2 (2×), 59.6, 57.3, 58.1, 50.8%”; (0.25 µM, runs of 2020) “inactive: 53.3, 50.1, 59, 60.3 (2×), 57.3, 62.5, 63.5, 59.4, 59.3 (2×), 57.7 (2×), 50.6, 59.8, 49.3, 57.9, 72.9, 62.1, 54.7, 65.7, 58.4, 64.4%”; (0.25 µM, runs of 2021) “inactive: 64.7, 60.2, 67.2, 63.4 (2×), 59.8, 65.5, 54.4, 55.9, 58.1 (2×), 55.6, 61.5 (2×), 61.8, 63.8, 67.7, 63.6, 60, 58.5, 58, 55.7, 58.8, 54.7, 55.5, 56.2, 49.9, 56.7, 57.3, 70.8, 68.4, 69.4, 66.2, 71.9, 56.3, 59.7, 63.5, 59.4, 58.7, 64.9, 67.6, 50.4, 57.9, 49.7, 50.1, 38.4, 52.4, 54, 73, 68.6%”. Further, the growth entry is “inactive: 17.4, 19.7, 60.8, 70.9, 19.5, 57.9 (2×), 39.4, 54.8, 52, 53.5, 59, 64.2, 53.6, 61.7, 56.9, 56, 47.9, 71.9, 79.6 (2×), 56.1, 71.3, 56.3, 56.2 (2×), 54.6, 57%” (0.25 µM, runs of 2022); “active: -52.8 (2×), -46.9, -64.1, -38.3, -73, -56, -63.7, -69.9, -58.2, -60.4, -74.3, -55.6, -82, -61.7, -67.3, -57, -52.2, -78.2, -40.9, -49.7, -60.8, -50.5, -52, -60.6, -40.3, -48.1, -41.3, 2.8, -59.1, -45.8, -55.8 (2×), -11.7, -49.8, -62.4, -53.1, -4.59, -75.5, -9.6, -60.7, -34.6, -54.3, -59.9, -81, -90%” (25 µM, runs of 1993); “active: -27, -81.3, -42.7, -69.1, -69.9, -10.1, -65.7, -53.2, -72, -56.2, -56 (2×), -33.4, -49.8, -56.9, -39.2, -52.1, -40.6, -27.3, 0.583, -48.8, -24, -54.9, -49.3, -21.9, -18.2, -35.6, -15.2, -55, -18.5, -47.8, -46.7% and inactive: 99.1%, 24.9%” (25 µM, runs of 1994); “active: -30.6, -21.1, -49.1, -40.3, -82.5, -72.8, -57, -44.6, -28.1, -57.1, -55.5, -48.2 (2×), -44, -19.5, -50.8, -56.7, -74, -34, -54.4, -41.6, -78.5, -32.3, -31.9, -49.3, -25.8, -20, -65.7, -18, -60, -49, -63.5, -52.4, -52.5, -53 (2×), -61.8, -43.7, -81.9, -56, -47.7%” (25 µM, runs of 1995); “active: -28.7, -46, -49.8, -21.5, -28.9, -37.2, -33.2, -52.3 (2×), -43, -64.8, -62.6, -7.4, 8.08, -51.4, -67.7, -26.8, -55.8, -61.7, -52.6, -28.6, -6.87, -44.8 (2×), -56.2, -52.8, -60.9, -41.9, -2.42, -20, -35.5, -60.2, -38.7, -17.8, -49.7, -64.1, -65, -54.4, -59.9, -78.6, -70.9, -57.4 (2×), -59.3 (2×), -62.9, -82.7, -66.2, -60.8, -77.1, -50, -13.1, -78.1, -63.3, 3.8, -48.9% and inactive: 90.8%, 14%” (25 µM, runs of 1996); “active: -37.6, 0.552, -33.5, -26.6, -34.2, -41.9, -11.3, -39.4, -56.8, -31.5, -54.1, -28.8, -36.4, -44.2, -37.2, -61.7, -34.7, -25.3, -68.9, -44.9, -59.7, -45.7, -66.5, -51.9, -27.1, -26.2, -36.3, -32.9, 3.15, 4.12, -3.83, -35.2, -11.9, -6.83, -26.3, -22.7, -17.2, 2.24, -11.4, -9.7, 0.195, -3.1, 2.18, 4.6% and inactive: 33.4%” (25 µM, runs of 1997). In addition, the growth result was “active: -40.2, -48.6, 4.74, -24.8, -16.9, -39.1, -26.9, -73.7, -35, -23.5, -24, -28.4, -2.8, -39.6, 8, -49, -42.1, -24.2, -26.2, -45, -4.04, -17.8, -35.8, -0.472% and inactive: 10.5%, 14.1%” (25 µM, runs of 1998); “active: 3.79, -8.61, -18.2, -49.1, -38.3, -100, -73.7, -69.8, 0.428, -16, -43.8, 1.3, -72, -81.7, -75.8, 0.678, -89.6%” (25 µM, runs of 1999); “active: -100% (2×), -40.5%, -78.9%” (25 µM, runs of 2000).

These data come from PubChem BioAssay (NCI).
